Assay results taken from patent US12583911B2, “Human immunodeficiency virus GP120 binding proteins” (ViiV Healthcare UK (No.5) Limited, priority 2022, dated 2026).

System: panel of HIV-1 envelopes (pseudotyped HIV-1 virus)
Test: PSV assay (ACTOne cells), HIV-1 envelopes
Type: cell-based
Description: The anti-viral activity of the antigen binding proteins was measured in a pseudotyped virus (PSV) assay.
PSV was produced in HEK-293T cells (ATCC, Manassas VA) by co-transfecting expression plasmids encoding the HIV-1 gp160 envelope gene and an HIV-1 backbone plasmid using TRANSIT-2020 transfection reagent (Mirus Bio, Madison WI). A panel of HIV-1 PSVs expressing different gp160 envelope trimers was generated to evaluate the effectiveness of the antigen binding proteins of the invention against a wide spectrum of HIV-1 strains.
The genome of PSV used in this assay contains a luciferase gene that is expressed once the virus enters cells. Accordingly, the luminescence signal (after adding a substrate of luciferase) can be used to determine the level of viral infection.
The 50% tissue culture infectious dose (TCID) of a single thawed aliquot of each batch of PSV was determined in ACTOne cells. The ACTOne cell-line used in this assay was derived in-house from a genetically engineered 293T cell clone that expresses CD4, CXCR4, and CCR5. Cells were maintained in growth medium composed of Dulbecco's modified Eagle's medium (DMEM, Life Technologies) at 37° C. in a humidified 5% CO2-95% air environment. Cell monolayers were split by treatment with Trypsin-EDTA (0.05%).
To run the anti-viral assay, ACTOne cells were detached by treating the cell culture flask with trypsin (trypsinization) and resuspended in growth medium containing 2% of DMSO to a density of 2.5×10^5 cells/ml. One hundred μl of such cells was added to 10 μl of antigen binding protein pre-loaded in a 96-well plate. Ninety μl of PSV was then added to each well. The assay plates were incubated at 37° C. in a humidified incubator at 5% CO2 level. Plates were developed after 72 hours of incubation by adding 50 μl of BRIGHTGLO luciferase reagent (Promega, Madison WI) to each well, and transferring the plates to an ENVISION multilabel plate reader (PerkinElmer, Waltham MA) to measure the luminescence and determine the level of virus that had infected the cells. The higher the luminescence signal, the higher the level of infection.

[1] = envelope 0260.v5.c36, PSV assay
[2] = envelope 3468_V1_C12, PSV assay
[3] = envelope 6471_V1_C16, PSV assay

Molecule | IC50 (envelope 42368, PSV assay) | IC50 (envelope X2088.C9, PSV assay) | IC50 (envelope ZM106.9, PSV assay) | IC50 (envelope 93UG065, PSV assay) | IC50 [1] | IC50 (envelope 928_28, PSV assay) | IC50 (envelope 3326_V4_C3, PSV assay) | IC50 [2] | IC50 (envelope 3637_V5_C3, PSV assay) | IC50 [3] | IC50 (envelope 620345_C1, PSV assay) | IC50 (envelope Q461_E2, PSV assay) | IC50 (envelope TH976_17, PSV assay) | IC50 (envelope YU-2, PSV assay) | IC50 (envelope 3326_V4_C3) | IC50 (envelope 3468_V1_C12) | IC50 (envelope 3637_V5_C3) | IC50 (envelope 42368) | IC50 (envelope Q461_E2) | IC50 (envelope X2088.C9) | also measured
bNAb3: anti-V3 broadly neutralizing antibody; HC with LS SEQ ID NO:73, LC SEQ ID NO:74 (antibody, LS Fc mutation) heavy: QVQLRESGPGLVKPSETLSLSCTVSNDSRPSDHSWTWVRQSPGKALEWIGDIHYNGATTYNPSLRSRVRIELDQSIPRFSLKMTSMTAADTGMYYCARNAIRIYGVVALGEWFHYGMDVWGQGTAVTVSSASTKGPSVFPLAPSSKSTSGGTAALGCLVKDYFPEPVTVSWNSGALTSGVHTFPAVLQSSGLYSLSSVVTVPSSSLGTQTYICNVNHKPSNTKVDKRV[human IgG1 Fc with changes not given here] light: SSELTQPPSVSVSPGQTARITCSGAPLTSRFTYWYRQKPGQAPVLIISRSSQRSSGWSGRFSASWSGTTVTLTIRGVQADDEADYYCQSSDTSDSYKMFGGGTKLTVLGQPAAAPSVTLFPPSSEELQANKATLVCLISDFYPGAVTVAWKADSSPVKAGVETTTPSKQSNNKYAASSYLSLTPEQWKSHKSYSCQVTHEGSTVEKTVAPTEC | > 500 nM | 0.03 nM | 0.03 nM | – | – | – | – | – | – | – | – | – | – | – | – | – | – | – | – | – | IC50 (envelope CAP45.2.00.G3, PSV assay): > 500 nM; IC50 (envelope CC1/85, PSV assay): 38.3 nM; IC50 (envelope NL4-3, PSV assay): 0.15 nM
bNAb11: anti-V3 broadly neutralizing antibody; HC with LS SEQ ID NO:278, LC SEQ ID NO:279 (antibody) heavy: QPQLQESGPGLVEASETLSLTCTVSGDSTGRCNYFWGWVRQPPGKGLEWIGSLSHCRSYYNTDWTYHNPSLKSRLTISLDTPKNQVFLRLTSVTAADTATYYCARFGGEVLVYRDWPKPAWVDLWGRGTLVTVSS[human IgG1 constant region with changes not given here] light: QSALTQPPSASGSPGQSITISCTGTSNNFVSWYQQYPGKAPKLVIYEVNKRPSGVPDRFSGSKSGSTASLTVSGLQADDEGVYYCSSLVGNWDVIFGGGTKLTVLGQPKAAPSVTLFPPSSEELQANKATLVCLISDFYPGAVTVAWKADSSPVKAGVETTTPSKQSNNKYAASSYLSLTPEQWKSHRSYSCQVTHEGSTVEKTVAPTECS | > 500 nM | 95.1 nM | 73.7 nM | 89.5 nM | 0.57 nM | > 500 nM | > 500 nM | > 500 nM | > 500 nM | 253 nM | 438 nM | > 500 nM | > 500 nM | 0.76 nM | – | – | – | – | – | – | –
bNAb12: anti-V3 broadly neutralizing antibody; HC with LS SEQ ID NO:283, LC SEQ ID NO:284 (antibody, LS Fc mutation) heavy: QVQLQESGPGLVKPAETLSLTCSVSGESINTGHYYWGWVRQVPGKGLEWIGHIHYTTAVLHNPSLKSRLTIKIYTLRNQITLRLSNVTAADTAVYHCVRSGGDILYYYEWQKPHWFSPWGPGIHVTVSS[human IgG1 constant region with changes not given here] light: QSALTQPPSASGSLGQSVTISCNGTSSDIGGWNFVSWYQQFPGRAPRLIIFEVNKRPSGVPGRFSGSKSGNSASLTVSGLQSDDEGQYFCSSLFGRWDVVFGGGTKLTVLGQPKAAPSVTLFPPSSEELQANKATLVCLISDFYPGAVTVAWKADSSPVKAGVETTTPSKQSNNKYAASSYLSLTPEQWKSHRSYSCQVTHEGSTVEKTVAPTECS | 344 nM | > 500 nM | 1.85 nM | 3.17 nM | 5.19 nM | 482 nM | > 500 nM | 344 nM | > 500 nM | > 500 nM | 179 nM | 41.9 nM | > 500 nM | 77.4 nM | – | – | – | – | – | – | –
bNAb13: anti-V3 broadly neutralizing antibody; HC with LS SEQ ID NO:288, LC SEQ ID NO:289 (antibody, LS Fc mutation) heavy: QVQLQESGPGLVKPSETLSLTCTVSGDSINTGHHYWGWVRQVPGKGPEWIAHIHYNTAVLHNPALKSRVTISIFTLKNLITLSLSNVTAADTAVYFCVRSGGDILYYIEWQKPHWFYPWGPGILVTVSS[human IgG1 constant region with changes not given here] light: QSALTQPPSASGSLGQSLTISCSGTGSDIGSWNFVSWYQQFPGRAPNLIIFEVNRRRSGVPDRFSGSKSGNTASLTVSGLRSEDEAEYFCSSLSGRWDIVFGGGTKVTVLGQPKAAPSVTLFPPSSEELQANKATLVCLISDFYPGAVTVAWKADSSPVKAGVETTTPSKQSNNKYAASSYLSLTPEQWKSHRSYSCQVTHEGSTVEKTVAPTECS | > 500 nM | > 500 nM | 22.4 nM | 46.4 nM | 18.1 nM | 201 nM | > 500 nM | > 500 nM | > 500 nM | 133 nM | > 500 nM | > 500 nM | > 500 nM | 48.3 nM | – | – | – | – | – | – | –
bNAb15: anti-V3 broadly neutralizing antibody; HC with LS SEQ ID NO:298, LC SEQ ID NO:299 (antibody, LS Fc mutation) heavy: EVHLEESGPGLVRPSETLSLTCTASGGSIRGGEWGDSDYHWGWVRHSPEKGLEWIGSIHWRGTTHYNAPFRGRGRLSIDLSRNQFSLRLTSVTAEDTAVYYCVKHKYHDIVMVVPIAGWFDPWGQGLQVTVSS[human IgG1 constant region with changes not given here] light: EIMMTQSPAILSVSPGDRATLSCRASQSVKNNLAWYQKRPGQAPRLLIFDTSSRASGIPARFSGGGSGTEFTLTVNSMQSEDFATYYCQQYEEWPRTFGQGTKVEIKRTVAAPSVFIFPPSDEQLKSGTASVVCLLNNFYPREAKVQWKVDNALQSGNSQESVTEQDSKDSTYSLSSTLTLSKADYEKHKVYACEVTHQGLSSPVTKSFNRGEC | – | – | – | – | – | – | – | – | – | – | – | – | – | – | > 500 nM | > 500 nM | 5 nM | > 500 nM | > 500 nM | 2.58 nM | IC50 (envelope ZM106.9): 1.34 nM
bNAb16: anti-V3 broadly neutralizing antibody; HC with LS SEQ ID NO:303, LC SEQ ID NO:304 (antibody, LS Fc mutation) heavy: EVQLVESGGGLVKPGGSLRLTCVASGFTFSDVWLNWVRQAPGKGLEWVGRIKSRTDGGTTDYAASVKGRFTISRDDSKNTLYLQMNSLKTEDTAVYSCTTDGFIMIRGVSEDYYYYYMDVWGKGTTVTVSS[human IgG1 constant region with changes not given here] light: QSVLTQPPSVSAAPGQKVTISCSGSSSNIGNNYVLWYQQFPGTAPKLLIYGNNKRPSGIPDRFSGSKSGTSATLGITGLQTGDEADYFCATWDSGLSADWVFGGGTKLTVLGQPKAAPSVTLFPPSSEELQANKATLVCLISDFYPGAVTVAWKADSSPVKAGVETTTPSKQSNNKYAASSYLSLTPEQWKSHRSYSCQVTHEGSTVEKTVAPTECS | – | – | – | – | – | – | – | – | – | – | – | – | – | – | > 500 nM | > 500 nM | > 500 nM | > 500 nM | > 500 nM | 289 nM | IC50 (envelope ZM106.9): > 500 nM
